Source: the RNAGym collection of RNA variant scans (doi:10.7554/elife.90254)
The source gives no read counts; variants with many changes may rest on few reads.

B1: LINE1-mini (parent)
chain: GGCAGAGCUCAACACAGCGUGGCAAAGUGGCUGUGGCUAGACUGCC

Variants of: B1
Experiment: self-cleavage, relative activity (ratio to wild type); higher = more cleavage; in vitro, sequencing; the parent is a self-cleaving ribozyme

**Q.** With GGCAGAGCUCAACACAGCGUGGCCAAUUGGCUGUGGCUUGACUGCC [A24C G27U A39U] as the variant, how does the self-cleavage read?
**A.** 0.3

**Q.** For GGCAGAGCUCAACACAGCGUGGCCAAUUGGCUGUGGCUAGACUGCU [A24C G27U C46U], which self-cleavage is on record?
**A.** 0.23

**Q.** For GGCAGAGCUCAACACAGCGUGGCCAAGUAGGUGUGGCUAGACUGCC [A24C G29A C31G], which self-cleavage is on record?
**A.** 0.08

**Q.** Which self-cleavage does the source give for GGCAGAGCUCAACACAGCGUGGCCAAGUAGCUGUCGCUAGACUGCC [A24C G29A G35C] here?
**A.** 0.41

**Q.** With GGCAGAGCUCAACACAGCGUGGCCAAGUUUCUAUGUCUAGACUGCC [A24C G29U G30U G33A G36U] as the variant, how does the self-cleavage read?
**A.** 0.12

**Q.** For GGCAGAGCUCAACACAGCGUGGCCAAGUUGCUGAGGCUAGACUGCC [A24C G29U U34A], which self-cleavage is on record?
**A.** 0.15

**Q.** For GGCAGAGCUCAACACAGCGUGGCCAAGUUGCUGUGGCUAGACCGCC [A24C G29U U43C], which self-cleavage is on record?
**A.** 0.06

**Q.** With GGCAGAGCUCAACACAGCGUGGCCAAGUGACUGUGCCUAGACUGCC [A24C G30A G36C] as the variant, how does the self-cleavage read?
**A.** 0.02

**Q.** Which self-cleavage does the source give for GGCAGAGCUCAACACAGCGUGGCCAAGUGACUGUGGCUAAACUGCC [A24C G30A G40A] here?
**A.** 0.13

**Q.** For GGCAGAGCUCAACACAGCGUGGCCAAGUGCCGGUGGCUAGACUGCC [A24C G30C U32G], which self-cleavage is on record?
**A.** 0.06

**Q.** With GGCAGAGCUCAACACAGCGUGGCCAAGUGUCUGUGGAUAGACUGCC [A24C G30U C37A] as the variant, how does the self-cleavage read?
**A.** 0.04

**Q.** With GGCAGAGCUCAACACAGCGUGGCCAAGUGUCUGUGGCUAGACUGCA [A24C G30U C46A] as the variant, how does the self-cleavage read?
**A.** 0.07

**Q.** For GGCAGAGCUCAACACAGCGUGGCCAAGUGGCUAUGGCUAGACUGCG [A24C G33A C46G], which self-cleavage is on record?
**A.** 0.06

**Q.** Which self-cleavage does the source give for GGCAGAGCUCAACACAGCGUGGCCAAGUGGCUACGGCUAGACUGCC [A24C G33A U34C] here?
**A.** 0.01

**Q.** With GGCAGAGCUCAACACAGCGUGGCCAAGUGGCUCUGGAUAGACUGGC [A24C G33C C37A C45G] as the variant, how does the self-cleavage read?
**A.** 0.08

**Q.** With GGCAGAGCUCAACACAGCGUGGCCAAGUGGCUCUGACUAGGCUGUC [A24C G33C G36A A41G C45U] as the variant, how does the self-cleavage read?
**A.** 0.09

**Q.** With GGCAGAGCUCAACACAGCGUGGCCAAGUGGCUCGAGCUAGACAGCU [A24C G33C U34G G35A U43A C46U] as the variant, how does the self-cleavage read?
**A.** 0.01

**Q.** Which self-cleavage does the source give for GGCAGAGCUCAACACAGCGUGGCCAAGUGGCUCUGGCAAGACUGCC [A24C G33C U38A] here?
**A.** 0.02

**Q.** With GGCAGAGCUCAACACAGCGUGGCCAAGUGGCUGUAGCUGGAUUCCC [A24C G35A A39G C42U G44C] as the variant, how does the self-cleavage read?
**A.** 0.14

**Q.** Which self-cleavage does the source give for GGCAGAGCUCAACACAGCGUGGCCAAGUGGCUGUCGCUAGACUGAC [A24C G35C C45A] here?
**A.** 0.08

**Q.** Which self-cleavage does the source give for GGCAGAGCUCAACACAGCGUGGCCAAGUGGCUGUCGCCACACUGCC [A24C G35C U38C G40C] here?
**A.** 0.03

**Q.** With GGCAGAGCUCAACACAGCGUGGCCAAGUGGCUGUUACUAGACUGCC [A24C G35U G36A] as the variant, how does the self-cleavage read?
**A.** 0.04

**Q.** For GGCAGAGCUCAACACAGCGUGGCCAAGUGGCUGUUGCUACACUGCC [A24C G35U G40C], which self-cleavage is on record?
**A.** 0.09

**Q.** For GGCAGAGCUCAACACAGCGUGGCCAAGUGGCUGUUGCCAGACUGCC [A24C G35U U38C], which self-cleavage is on record?
**A.** 0.08

**Q.** With GGCAGAGCUCAACACAGCGUGGCCAAGUGGCUGUUGCUAGACAGCC [A24C G35U U43A] as the variant, how does the self-cleavage read?
**A.** 0.02

**Q.** Which self-cleavage does the source give for GGCAGAGCUCAACACAGCGUGGCCAAGUGGCUGUGCCUAGUCUGAC [A24C G36C A41U C45A] here?
**A.** 0

**Q.** Which self-cleavage does the source give for GGCAGAGCUCAACACAGCGUGGCCAAGUGGCUGUGGCUACACUGCU [A24C G40C C46U] here?
**A.** 0.02

**Q.** Which self-cleavage does the source give for GGCAGAGCUCAACACAGCGUGGCCAAGUGGCUGUGGCUAGACUUCU [A24C G44U C46U] here?
**A.** 0.14

**Q.** With GGCAGAGCUCAACACAGCGUGGCCAAGUGGCCGUGUUUAGACUGCC [A24C U32C G36U C37U] as the variant, how does the self-cleavage read?
**A.** 0.01

**Q.** With GGCAGAGCUCAACACAGCGUGGCCAAGUGGCUGCGGCUAGACUCCC [A24C U34C G44C] as the variant, how does the self-cleavage read?
**A.** 0.07

**Q.** Which self-cleavage does the source give for GGCAGAGCUCAACACAGCGUGGCCAAGUGGCUGUGGCCAGAAUGCC [A24C U38C C42A] here?
**A.** 0.08

**Q.** With GGCAGAGCUCAACACAGCGUGGCGCAGUGGAUGUGGCUAGACUGCC [A24G A25C C31A] as the variant, how does the self-cleavage read?
**A.** 0.07

**Q.** Which self-cleavage does the source give for GGCAGAGCUCAACACAGCGUGGCGCAGUGGCUGUCGCUAGACUGCC [A24G A25C G35C] here?
**A.** 0.05

**Q.** Which self-cleavage does the source give for GGCAGAGCUCAACACAGCGUGGCGGAGUGGGUGUGGCUAGACUACC [A24G A25G C31G G44A] here?
**A.** 0.03

**Q.** Which self-cleavage does the source give for GGCAGAGCUCAACACAGCGUGGCGGAGUCGGUGUGGCUAAAAUGCC [A24G A25G G29C C31G G40A C42A] here?
**A.** 0.07

**Q.** Which self-cleavage does the source give for GGCAGAGCUCAACACAGCGUGGCGUGGCGGCUGUGGCUAGACUGCC [A24G A25U A26G U28C] here?
**A.** 0.31

**Q.** With GGCAGAGCUCAACACAGCGUGGCGUAGUGGCUGUGGCUAGACUGCU [A24G A25U C46U] as the variant, how does the self-cleavage read?
**A.** 0.77

**Q.** With GGCAGAGCUCAACACAGCGUGGCGUAGUGUCUGUGGCUAGACUGCC [A24G A25U G30U] as the variant, how does the self-cleavage read?
**A.** 0.56

**Q.** Which self-cleavage does the source give for GGCAGAGCUCAACACAGCGUGGCGAGGUGGCUGUGGCUAGACUGCG [A24G A26G C46G] here?
**A.** 0.44

**Q.** Which self-cleavage does the source give for GGCAGAGCUCAACACAGCGUGGCGAUGUGGCUGUAGCUAGACUGCC [A24G A26U G35A] here?
**A.** 0.09

**Q.** Which self-cleavage does the source give for GGCAGAGCUCAACACAGCGUGGCGAUGUGGCUGUGGCUACUCAGCC [A24G A26U G40C A41U U43A] here?
**A.** 0.08

**Q.** With GGCAGAGCUCAACACAGCGUGGCGAAGUGGCUGUGGCUGGACUCCC [A24G A39G G44C] as the variant, how does the self-cleavage read?
**A.** 0.07

**Q.** With GGCAGAGCUCAACACAGCGUGGCGAAGUGGAUGUGGGUAGACUGCC [A24G C31A C37G] as the variant, how does the self-cleavage read?
**A.** 0.04

**Q.** With GGCAGAGCUCAACACAGCGUGGCGAAGUGGAUUUAGCUAGACUGCC [A24G C31A G33U G35A] as the variant, how does the self-cleavage read?
**A.** 0.03

**Q.** Which self-cleavage does the source give for GGCAGAGCUCAACACAGCGUGGCGAAGUGGAUGUGGCUAUACUGUC [A24G C31A G40U C45U] here?
**A.** 0.04

**Q.** For GGCAGAGCUCAACACAGCGUGGCGAAGUGGUUCCGGCUAGACUGCC [A24G C31U G33C U34C], which self-cleavage is on record?
**A.** 0.03

**Q.** With GGCAGAGCUCAACACAGCGUGGCGAAGUGGCUGUGGAUAAACUGCG [A24G C37A G40A C46G] as the variant, how does the self-cleavage read?
**A.** 0.18

**Q.** With GGCAGAGCUCAACACAGCGUGGCGAAGUGGCUGUGGAUAUACUGCC [A24G C37A G40U] as the variant, how does the self-cleavage read?
**A.** 0.14

**Q.** With GGCAGAGCUCAACACAGCGUGGCGAAGUGGCUGUGGCUAGAAUGCA [A24G C42A C46A] as the variant, how does the self-cleavage read?
**A.** 0.07

**Q.** Which self-cleavage does the source give for GGCAGAGCUCAACACAGCGUGGCGAAAUGGCUGUUGCCAGACUACC [A24G G27A G35U U38C G44A] here?
**A.** 0.03

**Q.** For GGCAGAGCUCAACACAGCGUGGCGAACUUGCUGUGACUAGACUCCC [A24G G27C G29U G36A G44C], which self-cleavage is on record?
**A.** 0.04

**Q.** For GGCAGAGCUCAACACAGCGUGGCGAACUGGCUGUGGCUAGACUCCC [A24G G27C G44C], which self-cleavage is on record?
**A.** 0.34

**Q.** For GGCAGAGCUCAACACAGCGUGGCGAACUGGCUGUGGCUAGACAGCC [A24G G27C U43A], which self-cleavage is on record?
**A.** 0.12

**Q.** For GGCAGAGCUCAACACAGCGUGGCGAAUUGGCUGUGGAUAGACUGCC [A24G G27U C37A], which self-cleavage is on record?
**A.** 0.04

**Q.** Which self-cleavage does the source give for GGCAGAGCUCAACACAGCGUGGCGAAUUUGCUGUGGCUAGACUGCC [A24G G27U G29U] here?
**A.** 1

**Q.** Which self-cleavage does the source give for GGCAGAGCUCAACACAGCGUGGCGAAUUUGCUGUGGCUAGACUAUC [A24G G27U G29U G44A C45U] here?
**A.** 0.19
